# PubChem BioAssay AID1347073 (National Center for Advancing Translational Sciences (NCATS), 2019)
# About 200 (0.44%) of roughly 45,000 compounds were called active. Not shown: some 7% with an inconclusive outcome. The call rests on the fitted dose curve; in most records, active means well fitted activation curve with a large enough effect; inconclusive means small, poorly fitted or top-dose-only effect; inactive means no such curve, though single readings can be large or run the other way. This is one part of the list.
# Assay: qHTS of TDP-43 Inhibitors: NCGC Sytravon Library Screen; further: nearly all actives have a fitted effect of over 55% in size; on growth rescue (activation): 0% is about no effect
# Details: yeast TDP-43 toxicity rescue, BacTiter-Glo growth, 24 h; series mostly up to 46.1 µM; growth rescue (activation): at the top concentration
# Outline: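 TDP-43-expressing yeast, pregrown in raffinose, seeded at OD600 0.02 in galactose medium with compound for 24 hr at 30 deg C. Growth read by BacTiter-Glo luminescence, so rescue of toxicity appears as activation.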
# Potency means the concentration at half of the fitted maximal effect.
SMILES,growth rescue (activation),Potency
COc1ccc(N(C(=O)Cn2nnc(-c3ccc(C)o3)n2)C(C(=O)NC2CCCC2)c2ccncc2)cc1 (stereo not drawn),inactive: -18.1%,
O=C(COc1ccc(S(=O)(=O)N2CCOCC2)cc1Cl)NCc1ccccn1,inactive: 12%,
CCOC(=O)c1cnc2c(-c3ccccc3)cnn2c1C,inactive: -1.33%,
O=C(c1cccnc1)N(c1cc2sc(=O)oc2c2ccccc12)S(=O)(=O)c1ccccc1,inactive: 11.2%,
C[n+]1cccc(C(=O)N/N=C/c2ccc3c(c2)OCO3)c1,inactive: 1.56%,
Nc1ccc(N2CCOCC2)c(S(=O)(=O)Nc2cc(Cl)ccc2Cl)c1,inactive: 8.85%,
Cc1ccc(S(=O)(=O)N2CCC(C(=O)NNC(=O)c3ccncc3)CC2)cc1,inactive: 9.02%,
CSc1ccc(CN2CCN(S(=O)(=O)Cc3ccccc3)CC2)cc1,inactive: 4.67%,
O=C(COC(=O)c1ccc(Cl)c(S(=O)(=O)N2CCCC2)c1)NCc1ccccc1,inactive: 6.71%,
Cc1nn(-c2ccc(Cl)cc2)c(=O)c2ccccc12,inactive: 19%,
COc1cccc(C(=O)OCC(=O)NC23CC4CC(CC(C4)C2)C3)c1,inactive: 38.3%,
COc1ccc([N+](=O)[O-])cc1N(CC(=O)O)S(C)(=O)=O,inactive: -4.43%,
C=CCNc1ncnc2c1ncn2[C@H]1CN(CCc2ccccc2)C[C@@H](CO)O1,inactive: 10.7%,
Cc1csc(-c2cc(C(=O)NCc3cc(C(F)(F)F)cc(C(F)(F)F)c3)n[nH]2)c1,inactive: 7.72%,
FC(F)(F)c1ccc(N/N=C/c2cccnc2)nc1,inactive: -0.734%,
Cc1cccc(C)c1C(O)c1ncc(-c2cccc(F)c2)[nH]1 (stereo not drawn),inactive: 6.21%,
COc1ccc(OC)c(CN2CCCC(CCC(=O)N(C)CCc3ccccn3)C2)c1 (stereo not drawn),inactive: -5.57%,
CC(C)C(=O)N1CCCC1(C)C(=O)NCc1ccc(Cl)cc1 (stereo not drawn),inactive: 5.71%,
Cc1ccc(C)c(N(CC(=O)NC2CCCC2)C(=O)CNC(=O)c2cccs2)c1,inactive: -1.41%,
CCCC1=[N+](CC(=O)c2ccc(C)cc2)CCn2cccc21,inactive: 28.1%,
COc1ccc(NC(=O)COC(=O)CCc2cc(OC)c(OC)c(OC)c2)c([N+](=O)[O-])c1,inactive: 8.34%,
COc1ccc(C)cc1NC(=O)COC(=O)C1CCN(C(=O)c2ccc(Cl)cc2)CC1,inactive: 7.69%,
Cc1ccc(NC(=O)c2ccccc2)cc1-n1cnnn1,inactive: 2.79%,

SMILES,growth rescue (activation),Potency
O=C(O)CS(=O)(=O)CC(=O)NCc1cccc(C(F)(F)F)c1,inactive: -5.92%,
COc1ccc([N+](=O)[O-])cc1N(CC(=O)NCCCOC(C)C)S(C)(=O)=O,inactive: -5.31%,
COc1ccc2[nH]c3c(=O)n(Cc4ccc(C(=O)N5CCCC5)cc4)c(=S)[nH]c3c2c1,inactive: -15%,
CC(C(=O)O)N1C(=O)/C(=C/C=C/c2ccco2)SC1=S (stereo not drawn),inactive: 8.16%,
O=C(O)c1cccc(Cn2cc(Br)cn2)c1,inactive: 17.1%,
CCCCSc1nc(C)cc(SCC(=O)N/N=C/c2ccccc2)n1,inactive: 13%,
Cn1cc(CN2CCCC(C(=O)c3nccn3C)C2)c(-c2cccc(Cl)c2)n1 (stereo not drawn),inactive: -5.73%,
C/C(CC(=O)Nc1ccc(N(C)C)cc1)=N\NC(=O)C(=O)NCc1ccccc1,inactive: 5.11%,
O=C(CNC(=O)c1ccco1)N/N=C/c1ccc(C(=O)O)cc1,inactive: 13.4%,
COc1ccc(N(CC(=O)N2CCN(c3cccc(C)c3)C(C)C2)S(=O)(=O)c2c(C)n[nH]c2C)cc1 (stereo not drawn),inactive: 9.04%,
Cc1cc(C)nc(NC(=O)NS(=O)(=O)Nc2ccc(Br)cn2)n1,inactive: 17.2%,
CC(=O)Nc1ccc(NC(=O)c2cc(-c3cc(F)ccc3OCC3CCCO3)n[nH]2)cc1 (stereo not drawn),inactive: 12.3%,
Cc1sc2nc(SCC(=O)Nc3ccccc3F)[nH]c(=O)c2c1C,inactive: -5.77%,
Cn1c(=O)c(C(=O)NNC(=O)c2ccccc2Cl)c(O)c2ccccc21,inactive: -39.6%,
CCC1(c2ccccc2)NC(=O)N(CC(=O)N(C)Cc2ccccc2)C1=O (stereo not drawn),inactive: 5.83%,
O=C(c1ccc(F)cc1)N1CCC(n2nnc3ccccc32)CC1,inactive: 1.07%,
O=C(Cc1ccccc1)N/N=C/c1cccn1-c1ccc([N+](=O)[O-])cc1,inactive: 17.8%,
CCC(CC)c1nnc(NC(=O)C2CCN(C(=O)c3ccco3)CC2)s1,inactive: -5.85%,
COc1c(Cl)cc(Cl)cc1C(=O)Nc1ccc(CN2CCCCC2)cc1,inactive: 1.5%,
CN(C(=O)c1ccc2c(c1)CCN2S(C)(=O)=O)c1ccccc1,inactive: 2.26%,
O=C(CCN1C(=O)/C(=C\c2ccccc2)SC1=S)NNC(=O)c1cccnc1,inactive: 6.11%,
N/C(Cc1ccc([N+](=O)[O-])cc1)=N\OC(=O)c1ccc2ccccc2c1,,active: 8.91 µM
CCOC(=O)C1CCN(C(=O)COc2cccc3ccccc23)CC1,inactive: 14.4%,

SMILES,growth rescue (activation),Potency
Cn1nnc(NC(=S)NC(=O)Cc2ccccc2)n1,inactive: -11.2%,
O=C(NN1C(=O)C2C3c4ccccc4C(c4ccccc43)C2C1=O)C1CC1 (stereo not drawn),inactive: 17.4%,
O=C1C2C3C=CC(C3)C2C(=O)N1/N=C/c1cc(Br)cc([N+](=O)[O-])c1O (stereo not drawn),inactive: -93.8%,
Nc1nc(SCC(=O)c2ccc(F)cc2)n[nH]1,inactive: 12.2%,
O=S(=O)(Nc1cc(Sc2ncn[nH]2)c(O)c2ccccc12)c1ccccc1,inactive: -96%,
Cc1ccc(/C=N\NC(=O)COc2ccc(C)cc2[N+](=O)[O-])cc1,inactive: 10.4%,
COCCNc1nc(Oc2ccc(Cl)c(Cl)c2)c2sccc2n1,inactive: 21.9%,
Cc1ccccc1OCC(=O)Nc1ccccc1NC(=O)c1ccco1,inactive: 14.2%,
Cc1ccc(-n2cc(CN3CCN(Cc4nccn4C)CC3)c(-c3cccc(C)c3)n2)cc1,inactive: 12.9%,
CCn1c(C)nc2cc(C(=O)NNC(=O)CCC3CCCC3)ccc21,inactive: 4.43%,
Cc1ccccc1C(=O)OCC(=O)NCc1ccco1,inactive: -14.3%,
Brc1ccc(C2=CSC3=NCCN23)cc1,inactive: 4.42%,
O=S(=O)(c1ccc(NC(=S)N/N=C/c2ccc(O)c(O)c2)cc1)N1CCOCC1,inactive: -5.4%,
CCCOC(=O)/C=C/c1c(C)[nH]c(=O)[nH]c1=O,inactive: -2.63%,
COc1ccc(-c2cc(-c3cccnc3)c(C#N)c(N)n2)cc1,inactive: 9.97%,
CC1=NNC(=O)c2ccccc2O1,inactive: -15.7%,
N#CC1=C(N)N(c2ncn[nH]2)C2=C(C(=O)CCC2)C1c1ccccc1 (stereo not drawn),inactive: -4.59%,
C=CCN1C(=O)C(=O)N(Cc2nc3ccccc3s2)C1=O,inactive: -2.82%,
Cn1nnnc1Sc1ccc(C(=O)O)cc1[N+](=O)[O-],inactive: 7.93%,
CCOP(=O)(OCC)C(NC(=O)Nc1c(C)cc(C)cc1C)c1ccccc1 (stereo not drawn),inactive: 7.19%,
CC(=O)Nc1cnc(-c2ccccc2C(C)=O)cn1,inactive: 7.42%,
O=C(N/N=C/c1ccccc1F)c1cccc(NC(=O)c2ccccc2Cl)c1,inactive: 14.1%,
